In the supplement of paper PMC3334620:
Over roughly 33,000 sequences, “E-score (-0.5 to 0.5)” has its median near -0.054; the highest 2% begin near 0.35. The list shows a part of the results.

molecular target: T1, Stb5 (UniProt P38699); assay: PBM E-score (8-mer binding enrichment) (E-score (-0.5 to 0.5)); higher = stronger / more preferred TF binding; most listed sequences are background and not binding sites; conditions: protein concentration: 200 nM; construct: GST-full length
T1 sequence: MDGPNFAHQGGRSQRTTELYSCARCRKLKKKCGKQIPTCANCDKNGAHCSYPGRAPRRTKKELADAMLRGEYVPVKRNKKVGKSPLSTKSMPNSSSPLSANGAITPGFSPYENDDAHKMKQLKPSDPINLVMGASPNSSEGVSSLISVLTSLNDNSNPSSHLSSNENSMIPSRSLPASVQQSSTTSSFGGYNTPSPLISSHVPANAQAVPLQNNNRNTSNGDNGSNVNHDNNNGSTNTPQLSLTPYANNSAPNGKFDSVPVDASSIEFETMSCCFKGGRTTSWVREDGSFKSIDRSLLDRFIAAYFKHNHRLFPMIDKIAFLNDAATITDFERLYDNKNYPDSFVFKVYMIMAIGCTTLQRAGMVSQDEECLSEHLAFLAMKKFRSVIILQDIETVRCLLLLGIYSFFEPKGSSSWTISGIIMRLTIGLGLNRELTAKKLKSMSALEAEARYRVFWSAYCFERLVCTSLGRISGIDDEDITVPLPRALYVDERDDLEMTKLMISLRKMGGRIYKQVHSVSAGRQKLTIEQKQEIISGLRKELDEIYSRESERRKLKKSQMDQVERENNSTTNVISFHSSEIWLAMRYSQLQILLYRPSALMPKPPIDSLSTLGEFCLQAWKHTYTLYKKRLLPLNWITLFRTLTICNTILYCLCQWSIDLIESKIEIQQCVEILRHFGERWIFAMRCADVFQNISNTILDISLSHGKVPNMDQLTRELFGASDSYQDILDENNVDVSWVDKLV
Summary of the method: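 Full-length yeast transcription factors or their DNA-binding domains, GST-tagged and expressed with PURExpress, were applied at about 100-200 nM to universal all-10-mer Agilent arrays. These arrays had been made double-stranded by primer extension on fresh or once-stripped slides. Detection used fluorescent anti-GST, normalisation used masliner, and E-scores for ungapped eight-base words pooled with reverse complements came from the Universal PBM Analysis Suite.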

Sequence	PBM E-score
AGGACTAC	-0.13
AAATTAGG	-0.142
ATCCCTGC	-0.0751
AATAATTC	0.127
ATAATGAA	-0.076
CAGGCACC	0.033
ATTTAGGA	-0.0827
AAGAGTCC	0.118
GCCTCTGA	-0.173
CTCGTCAG	-0.202
ACATGCCA	-0.128
CCGCTCTC	0.23
GACCAGAC	-0.106
CGGTCCCC	0.114
ACGCGGAG	0.199
AGGAGATA	0.147
GGGCCGTA	0.24
CGTCTTAG	-0.0432
ATAGCAGG	-0.055
CGCTGTAG	-0.0143
AACTCAGG	-0.237
GTCGCCAA	-0.0812
GAATTTAA	0.0497
TCACAACA	-0.0667
CACCAACA	-0.179

Sequence	PBM E-score
AAGAACTA	-0.0107
AGTGGCTC	-0.171
CATCTGTA	-0.106
AGGTACAG	-0.12
TAGAAACA	-0.188
TCGAGTCA	-0.0428
GATATTGA	0.0444
CGTCTGGC	0.029
CTACGCAG	-0.147
GCTGTAAA	-0.254
ATCGCAGC	-0.0733
AGGCTCCG	0.246
CCGGCAGC	0.217
ATACACAA	-0.134
AAACGGGG	0.327
GGGGGAGA	-0.0232
GCTAGGCA	-0.0388
ACACCTTC	0.103
AGCCGCGG	0.332
AGGACGGC	0.215
ATTCGACA	-0.133
TACAGCAA	-0.0577
AACCCTTA	-0.147
AACTGAAC	-0.0784
CGGGTTCC	0.128

Sequence	PBM E-score
AGGAAGGA	-0.407
CATAAAAC	0.0257
CCAGCTGA	-0.269
ATATGACA	-0.228
ATGTTGGG	-0.0312
CATGGCGA	-0.197
CTACCACA	-0.14
CCGCCTGC	0.223
CCACTCAA	-0.218
AAACGGCC	0.225
CCTGGAAA	-0.145
CGGGTTGA	0.128
TACGCGTA	-0.0195
GTGGAGAA	-0.104
CCTTCGCA	-0.187
GCTACCTA	-0.175
ACTACGAA	-0.249
GTTCCCTA	0.00145
GTGATGCA	-0.167
ACATCCGT	0.275
ATGGCTGG	-0.215
CCGGGGTC	0.338
ATCAAGGC	-0.0377
ACGCAACA	-0.084
GATCACCA	-0.108

Sequence	PBM E-score
CTCAGCAC	-0.252
CACCAGCA	-0.239
CCCCTCGC	-0.318
AATGCAGA	-0.231
CGTTCGAA	0.0218
GCTGATAA	0.181
GGACTACA	0.0839
CGGAAAAC	-0.078
CATAGATC	0.0237
TGGTGTAA	-0.0808
AAACTACG	0.0163
AACTAAAA	0.0936
CACTCCCA	-0.126
CGCATGAG	-0.19
AACGTATA	-0.0377
ATTCGTCG	0.0151
ATTACAAT	0.0184
TCTTGTCA	-0.252
AACGTCCG	0.375
GATCACTA	-0.0631
CGATAATA	0.115
TAAATTTA	-0.00595
AGTCCGCA	0.323
CGTCCGTC	0.21
CTTCGTCC	-0.0995

Sequence	PBM E-score
GAGCGGTA	0.316
ACAAAAGA	-0.0623
TAAAGCGA	0.0848
ATGGGTAC	-0.34
CACGATGC	-0.0434
AGTTTAGG	-0.149
AACCATCT	-0.115
AAGCTGAA	-0.152
GGAGCACC	0.0397
ATCGAGTG	-0.132
ACTTGCCG	0.0296
CTGACAAC	-0.132
AGTATGGC	-0.0165
ATCAGGAC	-0.214
AGGTTTCG	-0.179
ATCGCCGC	0.385
GTCCGCGA	0.266
AAGGTGCC	0.0693
GAGAATGA	-0.26
ACGGCTTC	0.091
GGCCTCCA	0.0474
GTTGATAA	-0.173
CTGCAGCC	-0.218
CGACCACG	-0.0915
CGTGGCCA	-0.163

Sequence	PBM E-score
CCATTTTA	0.0641
GGAAGGCA	-0.12
AATGCGCC	0.156
ATTTCTCC	0.269
AACTTTCT	0.0701
ATAGTAGC	0.0553
CGGATCGC	-0.0101
GGACGGCA	0.252
GTGTGACA	-0.158
GACCGCCC	0.322
ACCGTTTC	0.164
CTACCGTA	0.0526
AAGTCTGT	-0.305
CGGGTTGC	0.0193
CCGACAGC	0.341
AAATAAAC	0.0274
ATACGAAG	-0.0649
CTACTAGA	-0.131
CCCTTTAG	-0.33
CTAACCAG	-0.27
CAAATATG	-0.0473
AAGACGAA	-0.242
ATCTCTCC	0.216
TAATGCAA	-0.158
AAACAGGA	-0.253

Sequence	PBM E-score
GCCAACGC	-0.031
GATCAATC	-0.101
CCGTAGGA	0.188
CAGCGCTG	0.178
ATACAAAT	-0.0114
TAATAGCA	-0.0524
CGATGAAG	0.0432
ACCGATCT	0.249
ATCTTCCG	0.124
AAGCATCG	0.0161
AGACGAAT	-0.201
ACTGTTGG	-0.189
GCCCCCGA	0.23
ATTTCTTA	-0.00559
CCTTAACA	-0.13
AGGGGATA	0.0586
CCGCAATC	0.23
AGAGTCTC	-0.219
ATTTAGTG	-0.0234
AGGTGTAT	-0.117
ATGATATA	-0.00522
CTACTCCC	-0.0111
CGTAAACG	0.0153
CTTGGGAC	-0.0832
ATAGCACA	-0.124

Sequence	PBM E-score
ACGGTTAC	0.119
AAACATCT	-0.121
GGTATCCA	0.097
AGTAATCG	-0.031
GTTGGTCA	-0.0313
AACTAGCA	-0.134
ACATCCTG	-0.0724
AGATCTGC	-0.186
AGACTGCT	-0.376
GCGTTCCC	0.0867
GTCCTACA	0.0371
AGCATAAG	-0.131
ACTTGATC	-0.103
GGACGTTA	0.155
AATCTGTA	-0.0262
ATCACATC	-0.0156
AGACGTGC	-0.182
GCGTAAGA	0.101
AGCCTGTA	-0.168
AACGGAGG	0.191
GACTACCC	-0.143
AATAGGCG	0.0769
AAAATCCA	-0.203
AACTCTGT	0.0227
CGCCTACC	0.0885

Sequence	PBM E-score
ACCATCAC	-0.0661
GCGAACTA	-0.0254
AGCATTGC	-0.156
CGACCGGC	0.222
CGGCAAAG	0.103
GGGTACAA	0.129
ACGTTTCA	-0.119
CCCCTGGC	-0.0152
CGAGATGA	0.0238
CAGTGAAG	-0.0993
AACCTGGC	-0.247
ATCTTGGG	-0.145
GACTAATC	0.153
GTCCCAAC	-0.0408
GTAGAGTA	-0.208
GGTCACAA	0.0628
ACTAATTC	-0.0183
CAAGGTGC	0.0204
GATGCATC	-0.0763
